# According to the supplement of paper PMC11417369:
# ± gives the standard deviation of the averaged measurements. The list shows a part of the results.
# System: PfAP2-G AP2 domain (GST-tagged)
# Experiment: gcPBM binding intensity (ln(normalized median fluorescence intensity)); higher = stronger DNA binding
# Outline: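 After 1 h on an Agilent 4 × 180k array of primer-extended double-stranded 36-bp intergenic genomic probes and negative controls, bound GST-tagged P. falciparum DNA-binding domains were detected with Alexa488 anti-GST antibody and scanned at 488 nm. The domains had been expressed in E. coli, and binding took place in 1× PBS with 1% milk, 0.2 mg/ml BSA, 0.5% salmon testes DNA and 0.03% Triton X-100. Binding intensity is the highest Masliner-normalised natural-log median intensity across replicate spots of either probe orientation.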
row,Sequence,gcPBM binding intensity (ln)
1,ATTCATATATACTTCACACACATTTTATCATTCAAA [CACACA_site2468],10.3 ± 0.14
2,TTTCTATTTATTTCAAGTACTAAAAATATATATAAC [XGTACX_site8203],11 ± 0.79
3,TTTATCCAATAATCTGGTACACAATAATCATTCATG [XGTACX_site6192],11 ± 0.5
4,GAAATTATGTAAAAAAGTACTAACATACATATATAT [XGTACX_site1794],11.2 ± 0.77
5,GAAAACGTCTTTAATAGTACACAGTTAAAAAATACA [XGTACX_site8976],11.1 ± 0.75
6,AAAAAAAAAAAAAACATACACACATTGAACTTTTAT [CACACA_site3251],10.04 ± 0.049
7,ACAAAATTTACAAAATGTACAAAATTTACAAAATAT [XGTACX_site3542],10.8 ± 0.49
8,CTATAAAAATATAATTGTACAAATTTTTATATCTTA [XGTACX_site7722],10.8 ± 0.43
9,TTTTTTCATTATATATAGTATGCAAGTCAAATTAAT [GTGCAC_negctrl_site207],9.94 ± 0.22
10,TTTTTTTTTTTGATGGTGCAATATATTAAATAGAAA,10.1 ± 0.47
11,TATATATATATATAAAGTACATATAATATATATTTG [XGTACX_site5412],11.1 ± 0.71
12,ATAATGTTTTATAATACACACATTAGATATATAAAT [CACACA_site7834],9.975 ± 0.049
13,TTAAAATAGATAAATAGTACTCTTTCCATTATGTAA [XGTACX_site6299],11.1 ± 0.42
14,TATATAATAAGATATGCATGCACATGTAAAATGAAT [TGCATGCA_site499],9.84 ± 0.21
15,ATATGTATAATATATATATATATATATATATATATA [CACACA_negctrl_site623],9.74 ± 0.4
16,TCATATAACACTTGATGTACAAGAATCCAAGTTGCA [XGTACX_site8758],10.9 ± 0.69
17,TAAATACTTTTATGTACACACATATAGATATATATT [CACACA_site5416],11.5 ± 0.81
18,TCAAAAACGAGACATGCATGCAATTCATTTTGATTC [TGCATGCA_site212],9.64 ± 0.12
19,CCATTCTTACTTTATTGTACTTGAAAATTTTTTTTA [XGTACX_site6160],11.3 ± 0.67
20,GTGATAAATATTATATGTACATATAATATTTATGTC [XGTACX_site8023],11.4 ± 0.88
21,TTGAACCTGATAAATACACACAATATATATTTTTTT [CACACA_site2173],9.8 ± 0.071
22,CACAAAAATAGACACACACACATATAGATTTATTAT [CACACA_site7676],9.97 ± 0.11
23,TTATGGTTTAAATAAAGTACAAATAAATAAATATAT [XGTACX_site5777],11.2 ± 0.76

row,Sequence,gcPBM binding intensity (ln)
1,ATACACATATGTTAATGTACACATATATAATATTTA [XGTACX_site163],11.3 ± 0.78
2,AATACAAATATATACACACATACATACATACATATA [CACACA_site3147],9.965 ± 0.035
3,ATATATATATGTTACTGTACTAATTTATATGTTAAT [XGTACX_site3341],11.4 ± 0.95
4,TAGTTTTCTTAAAGATGTACATTTTAAAAATAATCT [XGTACX_site255],11.2 ± 0.63
5,TAGATATATAATTTGCGTACACAAATAATATATTTT [XGTACX_site6397],11.4 ± 0.97
6,AGGTTACATAGATTTTGTACATATATATTATTTTTT [XGTACX_site3040],10.7 ± 0.4
7,AAAAAATTATAAAAGTGTACATATATATATATATAT [XGTACX_site154],11.3 ± 0.8
8,TTATGAAAAATAAAATTAGAAAAAAAGGAAAATGAA [XGTACX_negctrl_site232],9.915 ± 0.078
9,TTTCTTAAATATATTGAGGAATAAAAAGAAGAAAAG [GTGCAC_negctrl_site281],10 ± 0.3
10,AAAAAAAAAAAAAACACACACAAATTTAATCTATAT [CACACA_site6894],9.99 ± 0.23
11,TGTTATTACTTTATATCATCTTAAAATAAGCATATT [CACACA_negctrl_site1501],9.7 ± 0.15
12,TGAAATAAATAATGCACACTCTACAGATATACGTAT [CACACA_site5270],10.1 ± 0.11
13,TTGAAAATACAAAATTGTACAAAGATTTAAATAAAA [XGTACX_site1182],10.9 ± 0.35
14,CATATTTCTTTATTGGCACACATTTTTTCAATTATA [CACACA_site1618],10.5 ± 0.35
15,TATATGAAAATGTTCATACACACATAAAAAAAAAAA [CACACA_site3237],10.1 ± 0.26
16,TATTTATTTATGTGTTGTACAAATAAATAGAGGTAT [XGTACX_site6408],11.2 ± 0.71
17,ATATATTAAAAACGATGTACCCTGAACTAAAAAAAA [XGTACX_site4986],11.3 ± 0.66
18,TTTATTTATTACAATTTTTGAATCACCACACAGTCG [GTGCAC_negctrl_site413],10.3 ± 0.39
19,ATCATGTTATATACATGTACATATATATATATATAT [XGTACX_site1329],11.2 ± 0.82
20,TATACCTATAGACACACACACATATAGATTTATATA [CACACA_site7124],10.1 ± 0.11
21,AATTTTTTATTAAACACACAAACATATATATATATA [CACACA_site1937],9.95 ± 0.25
22,CGCATACACAGACACACACACACATATAAATATGTA [CACACA_site6444],10.2 ± 0.24
23,AAATAAATATTTATATGTACATATATTTTATAATAC [XGTACX_site7041],11.3 ± 0.73

row,Sequence,gcPBM binding intensity (ln)
1,TAACATATTTTTAATACACACTCAAAAAAGTACTTA [CACACA_site5638],11.4 ± 0.95
2,TACAAATATATATGCACACACATATACATACATATA [CACACA_site2182],10.1 ± 0.2
3,TATTAGATATAATATATACACACCAACGAACGAAGA [CACACA_site1134],10.3 ± 0.18
4,GTTCATACTTAATATTGTACTTTTCATGTAGTGTAT [XGTACX_site6613],11.3 ± 0.8
5,TTATATAATTTAATAGTGCAATTATATTAATTTTTC,9.71 ± 0.042
6,TTCATTCAAATTAACGTGCACATTATTAGTAAAAAC,10.3 ± 0.3
7,CCAACAAAAATAAGCACACACAAATATACATACATA [CACACA_site3606],10.2 ± 0.18
8,CATGCAATATTAAACACACACTCATATAGCACAATA [CACACA_site6182],9.96
9,CAAAACCTACATAACATACACACGCATATATAGAAT [CACACA_site2846],9.905 ± 0.007
10,TTCTTATCAAGAGAAAGTACATAAAAAATTAATAAG [XGTACX_site1821],11.3 ± 0.79
11,AGAATAATAAAATGGGTGCAATAGTTTTTTTTTTTT [GTGCAC_site9823],9.99 ± 0.042
12,ACAGTATCTGGTAGCTGTACGGATTGTAGAGAGTAG [XGTACX_site4872],11.4 ± 0.87
13,TTTTAAAAAATATAATATAATATAATATAAAATAAA [CACACA_negctrl_site154],9.405 ± 0.035
14,TTGGATTTTCCATAATGTACACATAAAAGTGTTACA [XGTACX_site4544],11.3 ± 0.89
15,CGCGCACACGGACACACACACACACGGATATAAATA [CACACA_site7102],11.4 ± 0.86
16,TGTTGTTACATATATACACACATATATATATTATAT [CACACA_site2397],10.1 ± 0.057
17,ATATATATATATATATGTACATATTTTAATAATTAA [XGTACX_site8549],11.2 ± 0.6
18,TAATATAGTATAGTATGTACATATAATTAGAATATT [XGTACX_site4053],11.3 ± 0.77
19,TGGTATATATTTCCTTGTACATATAATATATATTGT [XGTACX_site3961],11 ± 0.47
20,AATTTGTTATGTATATGTACATAAATAGATATATGA [XGTACX_site3930],11.2 ± 0.7
21,AACCATATTTAGATTACACACAGTTTAAATATTTTA [CACACA_site6712],9.9 ± 0.042
22,AATATGAACAGACACACACACACAAAAAAAAAAAAA [CACACA_site2012],10.1 ± 0.52
23,TATTAAAGGGGTTTCACACACATGTATAATTAATTT [CACACA_site200],9.915 ± 0.078

row,Sequence,gcPBM binding intensity (ln)
1,TCCAGGTATTTATTCTGTACACATAAAACATTTTAT [XGTACX_site8472],11.3 ± 0.83
2,TCGTCTCTTCTTGTTCTGTTTTAGAAGGCTATATAT [CACACA_negctrl_site180],10.1 ± 0.19
3,AGGAGGTCAGTTCACAGTACCCAGAAAACTCTACGA [XGTACX_site1992],11.1 ± 0.78
4,TCTTGACGAAGTAGAAGGATATATATATAAAAAAAA [CACACA_negctrl_site641],9.85
5,AAAATCCAGTTTTCAAAATTGAACAAAAAAAAAATA [GTGCAC_negctrl_site542],9.81 ± 0.014
6,TATTTTTCTTTATTGGTACACACGAAAAAAAAATTG [CACACA_site3054],11.3 ± 0.97
7,TATTTAATATATTTATGTACATATTTATTTATTATT [XGTACX_site524],11.4 ± 0.79
8,AAGAAGCATAAATGTACACACATATTTATATATCAA [CACACA_site6743],11.3 ± 0.91
9,AAAATATATATGTATGTTTATATGTTTATATATATT [XGTACX_negctrl_site337],9.54 ± 0.18
10,AAAAAAAAATTTAAGTGTACATTCCATTTTAGTTTA [XGTACX_site5286],11.2 ± 0.61
11,TCTAAGTATAAAGACACACAGAATAAAAAAAAATAT [CACACA_site2367],10.1 ± 0.19
12,TTTATTTATATTTATACACACAAACATAATACTACT [CACACA_site7039],10.3 ± 0.28
13,AAAGGATATGGACACACACACACATATATATATATA [CACACA_site8686],11 ± 0.64
14,CAACACTTATTGAAACGTACGCATATAGTTTCTTTT [XGTACX_site8960],11 ± 0.55
15,ATATATTTTTTAAACACACACATAAATATTTGTGTA [CACACA_site2879],9.925 ± 0.035
16,AATAAAATAATAAAAGCACACAAGAATACAGACAAA [CACACA_site112],10.09 ± 0.014
17,ATGTAAAACATAAAATGTACATATTATACAAACTAT [XGTACX_site5797],11.1 ± 0.56
18,TAAGTATAAATATTTACACACATTTGTTTTTTTTTA [CACACA_site7731],9.78 ± 0.13
19,TAATATAATATATGCACACAAATATGTATATATGTG [CACACA_site2134],10.3 ± 0.2
20,GGATAATATATTAGAACACACATATATCTGTAAAAA [CACACA_site4266],10.01 ± 0.028
